Among all 310,000 compounds or so, about 2,200 (0.71%) showed an effect of 50% or more. Effects have a minus sign here. This is one part of the list.
biological target: human ether-à-go-go-related gene (hERG) potassium channel (human, UniProt Q12809); test: primary screen, population patch clamp on CHO cells stably expressing hERG
Sequence (Q12809 whole entry, looked up): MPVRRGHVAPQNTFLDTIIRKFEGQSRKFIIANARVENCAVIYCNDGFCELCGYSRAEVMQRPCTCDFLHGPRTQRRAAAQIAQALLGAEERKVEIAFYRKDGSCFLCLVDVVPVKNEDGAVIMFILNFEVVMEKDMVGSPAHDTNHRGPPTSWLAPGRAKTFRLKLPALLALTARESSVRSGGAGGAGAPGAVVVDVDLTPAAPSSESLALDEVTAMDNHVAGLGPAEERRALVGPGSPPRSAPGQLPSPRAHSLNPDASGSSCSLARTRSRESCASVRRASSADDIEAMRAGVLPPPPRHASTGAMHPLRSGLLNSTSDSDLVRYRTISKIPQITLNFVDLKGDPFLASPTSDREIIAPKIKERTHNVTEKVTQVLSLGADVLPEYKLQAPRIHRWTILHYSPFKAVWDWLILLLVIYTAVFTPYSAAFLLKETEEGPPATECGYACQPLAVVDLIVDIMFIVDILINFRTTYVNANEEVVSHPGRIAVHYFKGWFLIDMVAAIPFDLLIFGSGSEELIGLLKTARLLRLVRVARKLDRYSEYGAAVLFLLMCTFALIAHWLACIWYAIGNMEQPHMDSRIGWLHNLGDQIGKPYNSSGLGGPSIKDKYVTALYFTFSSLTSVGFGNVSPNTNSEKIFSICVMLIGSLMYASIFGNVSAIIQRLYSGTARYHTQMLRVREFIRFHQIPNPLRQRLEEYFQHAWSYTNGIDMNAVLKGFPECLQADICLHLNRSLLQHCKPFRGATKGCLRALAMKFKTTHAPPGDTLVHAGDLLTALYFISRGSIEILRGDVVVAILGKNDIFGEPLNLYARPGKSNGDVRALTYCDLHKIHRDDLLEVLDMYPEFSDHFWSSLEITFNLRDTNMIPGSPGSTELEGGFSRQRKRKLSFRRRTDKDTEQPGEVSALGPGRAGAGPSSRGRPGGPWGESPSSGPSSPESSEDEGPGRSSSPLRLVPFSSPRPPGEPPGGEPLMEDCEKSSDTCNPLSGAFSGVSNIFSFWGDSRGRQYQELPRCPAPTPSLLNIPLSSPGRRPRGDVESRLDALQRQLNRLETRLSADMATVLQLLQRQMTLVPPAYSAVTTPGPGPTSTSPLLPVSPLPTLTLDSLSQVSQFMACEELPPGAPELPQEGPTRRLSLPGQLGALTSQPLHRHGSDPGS

Row | SMILES | hERG current change (%, negative = inhibition) at 1uM
1 | CCn1c(C)nc2cc(C(=O)NNC(=S)Nc3ccc(Cl)cc3Cl)ccc21 | 13.4%
2 | O=C(CCn1c(=O)oc2ccccc21)N1CCN(c2ccc(F)cc2)CC1 | -27.1%
3 | COC(=O)c1ccccc1NC(=O)C1CCN(C(=O)c2cc(OC)cc(OC)c2)CC1 | -5.95%
4 | COc1ccc(N2CCN(c3cnc4ccccc4n3)CC2)cc1 | 10.4%
5 | C[C@H]1O[C@@H](OC2CC[C@]3(C=O)[C@H]4CC[C@]5(C)[C@@H](C6=CC(=O)OC6)CC[C@]5(O)[C@@H]4CC[C@]3(O)C2)CC2OC(C)(C)OC21 (stereo partly shown) | -2.38%
6 | CCc1ccc(CNC(=O)CCc2nnc(Cc3cccc(C(F)(F)F)c3)o2)nc1 | -20.3%
7 | COc1ccc(NC(=O)N2CCc3ccccc3C2)c(OC)c1 | 2.48%
8 | Cc1ccc(S(=O)(=O)N2CCOCC2)cc1NC(=O)COC(=O)c1cnccn1 | 11.9%
9 | Cc1cc(C)nc(NC(=O)c2cc([N+](=O)[O-])cc([N+](=O)[O-])c2)n1 | 5.91%
10 | COc1ccc(C2c3[nH]c4ccccc4c3C[C@H]3C(=O)N(c4ccccc4C(=O)N4CCC[C@@H]4C(=O)O)C(=O)N23)cc1 (stereo partly shown) | 14.3%
11 | Cc1nnsc1NC(=O)OCC(C)C | 19.6%
12 | CCCn1nnnc1NCc1ccc(N(CC)CC)cc1 | 13.2%
13 | CCOc1ncnc2c1[nH]c1ccccc12 | 13.8%
14 | COc1ccc(CCNC(=O)CSc2nc(=O)n3cc(C)ccc3n2)cc1OC | 13.6%
15 | CCCCS(=O)(=O)NC1=NCN(CCO)CN1 | 13.1%
16 | CCN(CC)CCN(C(=O)C1CCCCC1)c1nc2cc3c(cc2s1)OCO3.Cl | -2.01%
17 | COc1ccc(S(=O)(=O)N2CCOC2CNC(=O)C(=O)NCCc2ccc(OC)c(OC)c2)cc1 (stereo not shown) | 7.24%
18 | CCN(Cc1cc2cc(C)ccc2[nH]c1=O)C(=O)c1cccc([N+](=O)[O-])c1 | -2.52%
19 | O=C(CN1C(=O)S/C(=C\c2cccs2)C1=O)Nc1ccc(C(=O)O)c(O)c1 | 16.4%
20 | OC1CCCN(CC(O)COc2ccc(-c3ccccc3)cc2)C1 (stereo not shown) | -0.151%
21 | Cc1ccc(C(=O)NCCCNC(=O)COc2ccccc2Cl)cn1 | 12.5%
22 | Cc1nc2ccc(S(=O)(=O)NC(C(=O)N3CCn4c3nc3ccccc34)C(C)C)cc2s1 (stereo not shown) | 9.51%

Row | SMILES | hERG current change (%, negative = inhibition) at 1uM
23 | O=C(NCCc1ccccn1)C1CCN(S(=O)(=O)c2ccc3ccccc3c2)CC1 | 2.14%
24 | C#CCOCCOCCOCCNc1nc(N2CCN(C(=O)C([C@@H](C)CC)n3cc(C(N)Cc4ccc(O)cc4)nn3)CC2)nc(N2CCN(C(=O)[C@H](CCC(=O)O)n3cc(C(N)Cc4ccc(O)cc4)nn3)CC2)n1.Cl (stereo partly shown) | 19.4%
25 | COc1ccc(CNC(=O)C(c2cccc(C)c2)N(C(=O)c2csnn2)C2CC2)cc1 (stereo not shown) | -4.85%
26 | CNC(=O)CSc1nc2ccccc2c(=O)n1C1CCCCC1 | 12.6%
27 | COC(=O)/C(C#N)=C/c1cc(C)sc1C | 17.8%
28 | CC(C)(C)NC(=O)CSc1ccc(S(=O)(=O)N2CCOCC2)cn1 | 2.24%
29 | CNc1c(NC(=O)c2ccc3c(c2)OCO3)c(=O)oc2ccccc12 | 16.4%
30 | CC1(C)Cc2c(sc(NC(=O)C(=O)NCCCN3CCOCC3)c2C#N)CO1 | 16.7%
31 | O=C(CSC1=NS(=O)(=O)c2ccccc2N1)NCc1ccc(F)cc1 | 4.29%
32 | O=C(/C=C/c1ccccc1Cl)Nc1cccc(S(=O)(=O)NC2=NCCCCC2)c1 | -11.5%
33 | COc1ccccc1-n1c(-c2ccc(F)cc2)coc1=O | 3.92%
34 | COc1cc(C2CC(=O)OC3=C2C(=O)CC(C)(C)C3)cc(OC)c1OC (stereo not shown) | 15.4%
35 | Cc1ccc(OCCN(C)C(=O)C2CCC(=O)N(CC3CCCCC3)C2)cc1 (stereo not shown) | -7.77%
36 | CN(c1ccc(C(=O)NCC2CCCO2)cc1)S(=O)(=O)c1ccccc1 (stereo not shown) | 10.6%
37 | Cc1ccc(C(C(=O)NC(C)(C)C)N(Cc2cccs2)C(=O)c2csnn2)cc1 (stereo not shown) | 9.4%
38 | CCCn1nnc(NC(=O)/C=C/c2ccccc2)n1 | 12.2%
39 | O=C(Cn1ncc2c([nH]c3ccccc32)c1=O)N1CCc2ccccc2C1 | 16.2%
40 | Cc1ncc(CN2CCCCC2C(=O)Nc2ccc(Oc3ccccc3)nc2)cn1 (stereo not shown) | 7.53%
41 | OCC1(CO)COC(CCc2ccccc2)=N1 | 11%
42 | COC(=O)c1ccc(NC(=O)c2cccc(C)c2)cc1 | 10.8%
43 | S=C(c1ccc(-c2cccc(Cl)c2)o1)N1CCCCC1 | 18%

From PMC4336329 (PLoS ONE, 2015)
